From PubChem BioAssay AID686978 (National Center for Advancing Translational Sciences (NCATS), 2013)
Values joined by “and” are separate entries in the source; they are usually repeats but may differ in a detail not shown here. Equal entries are not always repeated. Out of some 420,000 compounds screened, about 64,000 (15%) were called active. Inconclusive results, whose numbers are uncertain, are shown with a selection of clear calls. Calls follow the shape of the dose curve; as a rule, active = well fitted inhibition curve with a large enough effect; inconclusive = small, poorly fitted or top-dose-only effect; inactive = flat fitted curve, though single readings scatter. Potencies beside an inconclusive call are fits to weak or partial responses and may not hold up.

Assay: qHTS for Inhibitors of human tyrosyl-DNA phosphodiesterase 1 (TDP1): qHTS in cells in absence of CPT; also: nearly all actives have a fitted effect of over 55% in size
Details: DT40 Tdp1-/- hTDP1 cells, no CPT, ATP luminescence, 48 h; series mostly up to 46.2 µM
How it was run: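 Growth kinetics read by CellTiter-Glo luminescence after ≥48 hr at 37 °C. Cells: DT40 Tdp1-/- stably carrying human TDP1, 400 per well, compound exposure in the absence of CPT (DMSO vehicle).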
Potency is read from the fitted curve at half-maximal effect; tags tell the direction and shape of the fitted curve.

Compound | Potency
CN(C)S(=O)(=O)c1ccc2nnn(O)c2c1 | inconclusive: 18.4 µM [inhibitor, single point]
CC(C)(C)c1ccccc1NC(=S)NCc1ccccc1 | active: 18.4 µM
CC(C)c1ccc(NC(=O)CSc2n[nH]c(=O)n2-c2ccc3c(c2)OCCO3)cc1 | inconclusive: 14.6 µM [inhibitor, partial curve, poor fit]
CCOP(=O)(OCC)C(NC(=O)c1cccs1)c1ccccc1 (stereo not drawn) | inactive
COc1ccc(S(=O)(=O)N2CCOCC2)cc1C(=O)NC1CCCCCC1 | inconclusive: 18.4 µM [inhibitor, single point]
Cc1ccc2nc3c(cc(C(=O)NCC4CCCO4)c(=N)n3C3CCCC3)c(=O)n2c1 (stereo not drawn) | inconclusive: 16.4 µM [inhibitor, single point]
COc1ccc(-c2ccc(CN3C(C)C(=O)N(Cc4cn(CCC5OCCCO5)nn4)CCS3(=O)=O)cc2)cc1 (stereo not drawn) | active: 18.4 µM
O=C(COc1cc(Cl)c(Cl)cc1Cl)NC(=O)Nc1ccc2c(c1)OCCO2 | inconclusive: 29.1 µM [inhibitor, single point]
CN(C)S(=O)(=O)c1ccc(NC(=O)N2CCN(c3ccccc3)CC2)cc1 | inactive
COc1cc(Cn2c3ccc(NC(=O)CCc4cccnc4)cc3c(=O)n2C)ccc1F | inconclusive: 18.4 µM [inhibitor, single point]
O=C(c1ccc(Cn2c(=O)[nH]c3ccccc3c2=O)cc1)N1CCN(c2ccccn2)CC1 | active: 23.1 µM
CSc1nc2nccc(-c3ccc(-c4ccccc4)cc3)n2n1 | inconclusive: 18.4 µM [inhibitor, partial curve, poor fit]
O=C(CN1CCC(NC(=O)c2ccco2)CC1)Nc1ccccc1C(F)(F)F | inconclusive: 14.6 µM [inhibitor, single point]
Cc1ccc(S(=O)(=O)NCCCCCCNS(=O)(=O)c2ccc(C)cc2)cc1 | active: 23.1 µM
O=C(NC1CC1)C1CCN(S(=O)(=O)c2ccc(Cl)c([N+](=O)[O-])c2)CC1 | inconclusive: 29.1 µM [inhibitor, single point]
CC1(C)CC(NC(=O)COc2ccc3c4c(c(=O)oc3c2)CCCC4)CC(C)(C)N1 | inactive
CCn1cc(C(=O)NCCCOC(C)C)c(=O)c2cc(S(=O)(=O)N3CCOCC3)ccc21 | inconclusive: 25.9 µM [inhibitor, single point] and inconclusive: 29.1 µM [inhibitor, single point]
Cc1cc(=O)oc2cc(OCC(=O)N3CC[C@@]4(O)CCCC[C@H]4C3)c(Cl)cc12 | inconclusive: 9.2 µM [inhibitor, partial curve]
COc1cccc(CN2C(=O)CN(C3CCCCC3)C(=O)C2c2ccc(OC(C)C)c(OC)c2)c1 (stereo not drawn) | inconclusive: 13 µM [inhibitor, partial curve, poor fit]
COc1cccc(NC(=O)c2c(C)nn(-c3cccc(C)c3)c2-n2cccc2)c1 | inconclusive: 20.6 µM [inhibitor, single point]
O=C(/C=C/Nc1ccc(S(=O)(=O)Nc2ncccn2)cc1)c1ccc2ccccc2c1 | inactive
O=C(c1ccccc1F)N1CCN(C(=O)C2CC2)CC1 | inactive

Compound | Potency
CN(C)c1ccc(/C=C2\NC(=O)NC2=O)cc1 | inactive
CCCCCCCCC(=O)NNC(=O)c1c(O)c2ccccc2n(CC)c1=O | inconclusive: 25.9 µM [inhibitor, single point]
COc1ccc(/C=C/C(=O)Nc2nc(N)n(-c3ccccc3)n2)cc1 | inactive
O=C(Cn1ccc2cc(S(=O)(=O)N3CCCCCC3)ccc21)NCc1ccccc1Cl | inconclusive: 20.6 µM [inhibitor, single point]
O=C(NCc1ccccc1F)C1CCN(C(=O)NCc2ccccc2)CC1 | inactive
Cc1c(C)c2c(OCC(=O)Nc3ccc(CCO)cc3)cc3c(c2oc1=O)CCC(C)(C)O3 | inconclusive: 29.1 µM [inhibitor, single point]
CC(C)CN1CCC2(CC1)CCN(C(=O)c1cccn1C)CC2 | inactive
Cc1cc(NC(=O)N2CCC(CN3CCCCCC3)CC2)ccc1Br | inconclusive: 25.9 µM [inhibitor, single point]
Cc1ccc(NC(=O)NC(=S)NC(=O)c2ccccc2)cc1 | inconclusive: 29.1 µM [inhibitor, single point]
O=C1/C(=C\c2ccccn2)SC(=S)N1Nc1ncc(C(F)(F)F)cc1Cl | inactive
COc1cccc(NC(=O)C(=O)NCCC2CCCCN2S(=O)(=O)c2ccccc2)c1 (stereo not drawn) | inconclusive: 29.1 µM [inhibitor, single point]
Brc1ccc2ncc3ccccc3c2c1 | inconclusive: 29.1 µM [inhibitor, single point]
CN(C)S(=O)(=O)c1cccc(C(=O)OCC(=O)Nc2ccccc2OC(F)F)c1 | inconclusive: 18.4 µM [inhibitor, single point]
CCCNc1c(F)c(F)c2c(C)c3ccccc3nc2c1F | inconclusive: 29.1 µM [inhibitor, single point]
O=C(CNC(=O)c1ccc2c(c1)OCO2)NCCOc1ccc(Cl)cc1 | inconclusive: 29.1 µM [inhibitor, single point]
Cc1nn(CC(=O)NC(C)CCc2ccccc2)c(=O)c2nn(-c3ccccc3)c(C)c12 (stereo not drawn) | inactive
O=C(Nc1cccc(F)c1)N1CCCC2(CCNCC2)C1 | inconclusive: 25.9 µM [inhibitor, single point]
CCOc1ccc(C(=O)N2CCN(S(=O)(=O)c3cccs3)CC2)c(OCC)c1 | inconclusive: 23.1 µM [inhibitor, single point]
O=c1cc(-c2ccc(C3CCCCC3)cc2)[nH][nH]1 | inconclusive: 18.4 µM [inhibitor, partial curve]
COc1ccc([N+](=O)[O-])cc1NC(=O)CSc1ccccc1 | inconclusive: 29.1 µM [inhibitor, single point]
Cc1c(C(C)(C)C)sc(=NC(=O)c2ccccc2O)n1C | inconclusive: 25.9 µM [inhibitor, single point]
